Source: the supplement of paper PMC11383711
The other results are listed elsewhere or left out. Binding of human antibodies (heavy:light variable regions, tested as scFv in one mRNA-display pool) to influenza hemagglutinin, with or without the stem antibody CR9114 bound first. Score = (mean enrichment − median) / interquartile range of that screen; higher = more enriched, 0 = typical non-binder. Active = above the paper's cut-off per screen: stems 28; unblocked H1 Solomon Islands 5, H1 Michigan 3, H3 5, H5 19, H7 2.85, both B 5; blocked 9, 7, H5 10, H7 10, B Phuket 10, B Lee 11.5. Scores are scaled within each screen and are no affinities; replicates correlate at about 0.6 to 0.9, and antibodies rare in the pool are noisier.

B1: AG12-C05 (protein)
chain 1: VQLQESGPGLVKPLQTLSLTCTVSGVSIANNGFYWTWVRQRPGKGLEWIGNIFYSGDTSYSPSVERRLTISLDTSKNQFSLRLASVTAADTAVYYCTVESWYSSGPGENHFDSWGQGTLVTVSS
chain 2: DIQMTQSPSSLSASVGDTVTITCRASETIKFYLNWYQQKPGKAPKLLMSPASSFHRGAPSRFSASGSGTDFSLTISSLQPEDFATYYCQQSYITPRTFGQGTKVEIK
B2: AG13-3D02 (protein)
chain 1: VQLVESGGGLVKPGGSLRLSCAASGFTFSDYYMTWIRQAPGKGLEWVSYIDSWSTYTDYPDSVKGRFTVSRDNAKNSLYLQMNSLRAEDTAVYFCARDRGDCSRTTCSFDSWGQGTLVTVSS
chain 2: DIQMTQSPSSLSASVGDSVNITCRASQNIRRSLHWYQQKSGRAPQLLIFSVSALHGGVPTRFSGSGSGTEFTLTISSLQPEDFATYFCQQSYSRPLTFGPGTKVDIK
B3: antibody 3D04 (protein)
chain 1: EVQLVESGGGVVQPGRSLRLSCAPSGFTFDIYAMQWVRQAPGKGLEWVAFVSYDGSIKNYADSVKGRFTISRDKYLEMNSLRPEDTAVYFCARGRVAYCTTDCYHAFDIWGQGTMVTVSS
chain 2: SYELTQPHSVSVAPGQTATITCGGDYIERKSVHWYQQKPGQAPVLVVYDDSDRPSGIPERLSGSNSGNTATLTISRVEGGDEADYYCQVWDSSCDCWVFGGGTKVTVL
B4: R95-1G07 (protein)
chain 1: EVQLVESGGGVVQPGRSLRLSCAASGFTFGSYAIHWVRQAPGKGLEWVAFDSNNKYYVDSVKGRFTTSRDNSKNTLYLQMDSLRAEDTAVYYCAREFQTYAFDYWGQGTLVTVST
chain 2: SYELTQPPSVSVAPGQTARITCGGNNIGSKSVNWYQQKPGQAPVLVVYDDSDRPSGIPERFSGSNSGNTATLTISRVEAGDEADYHCQVWDSRSDHPVFGGGTKVTVL
B5: 019-10-4A03 (protein)
chain 1: EVQLVESGGGVVKPGGSLRLSCAASGIDFFNAWMSWVRQAPGKGLQWVGHIRSLTDGGTTDYAAPGKGRFTISRDDSQNTLYLQMESLRTDDTAVYYCTTDYGDYLNGGRWGQGTLVTVSS
chain 2: DIVMTQSPLSLSVTPGEPASISCRSSQSLLRNNEFNYLDWYLQKPGQSPQVLIYFGSHRASGVPDRFSGSGSGTSFTLRINRVEAEDVGVYYCMQALQTPYTFGQGTKVEIK
B6: R95-1A04 (protein)
chain 1: LVQLQESGPGLVKPSETLSLTCTVSGYSINTGYYWGWIRQPPGKGLQWIGSIYYSGRTHYNPSLRSRVTIFLDTSKNQFSLKLRSVTAADTAVYYCARWWSSSGGSNWFDPWGQGTLVTVSS
chain 2: SYELTQPPSVSVAPGQTARITCGGDNIESKSVHWYQQKPGQAPALVVYDDSDRPSGIPERYSGSNSGNTATLTISRVEAGDEADYYCQVWDGSGDQALVLFGGGTKLTVL
B7: R95-1E05 (protein)
chain 1: QVQLVQSGPEVKKPGSSVKVSCKASADTFSSYGFSWVRQAPGQGFEWMGGIIPAFGTTNYPQRFQDRVTITADESTRTVYMELSSLRSEDTAMFYCARDSPPWGDVNNNDAFDIWGQGTMVTVSS
chain 2: DVVMTQSPLSLPVTLGQPASISCRSSQSLVYTDGNTYLNWFQQRPGQSPRRLIYKVSNRDSGVPDRFSGSGSGTDFTLKISRVEAEDVGVYYCMQATDWPSITFGQGTRLEIK

These binders were tested against Influenza A H1N1 A/Michigan/45/2015 hemagglutinin ectodomain (assay: mRNA display binding score; higher = more enriched on the antigen). Details: antigen blocked with: 2 µM CR9114 IgG.
Description: (§1)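 A pool of natively paired antibodies, displayed as scFv on mRNA, was selected once on antigen-coated beads and sequenced before and after; two replicates.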

Row | Binder | mRNA display binding score
1 | B1 | inactive: 0.386
2 | B2 | inactive: -0.296
3 | B3 | inactive: 0.678
4 | B4 | inactive: 2.39
5 | B5 | inactive: 1.14
6 | B6 | inactive: -0.276
7 | B7 | inactive: -0.495

Same assay, conditions: antigen blocked with: nothing

Row | Binder | mRNA display binding score
8 | B1 | inactive: 0.265
9 | B2 | inactive: 0.731
10 | B3 | inactive: -0.133
11 | B4 | inactive: 0.283
12 | B5 | inactive: 1
13 | B6 | inactive: 0.17
14 | B7 | inactive: -0.743

What follows are binders tested against Influenza A H1N1 A/Solomon Islands/3/2006 hemagglutinin ectodomain in the same assay as above. Details: antigen blocked with: 2 µM CR9114 IgG.
Description: as §1

Row | Binder | mRNA display binding score
15 | B1 | inactive: -0.00683
16 | B2 | inactive: -0.567
17 | B3 | inactive: 0.511
18 | B4 | inactive: 1.02
19 | B5 | inactive: 1.23
20 | B6 | inactive: 0.597
21 | B7 | inactive: -0.198

Same assay, conditions: antigen blocked with: nothing

Row | Binder | mRNA display binding score
22 | B1 | inactive: 0.399
23 | B2 | inactive: -0.532
24 | B3 | inactive: -0.121
25 | B4 | inactive: 0.659
26 | B5 | inactive: 0.701
27 | B6 | inactive: 0.241
28 | B7 | inactive: -0.578

These binders were tested against Influenza A H3N2 A/Singapore/INFIMH-16-0019/2016 hemagglutinin ectodomain in the same assay as above. Details: antigen blocked with: nothing.
Description: as §1

Row | Binder | mRNA display binding score
29 | B1 | inactive: 0.0251
30 | B2 | inactive: 2.22
31 | B3 | inactive: -0.275
32 | B4 | inactive: 0.575
33 | B5 | inactive: 1.06
34 | B6 | inactive: -0.394
35 | B7 | inactive: -0.101

The binders below were run against Influenza A H5N1 A/Qinghai/1A/2005 hemagglutinin ectodomain in the same assay as above. Details: antigen blocked with: 2 µM CR9114 IgG.
Description: as §1

Row | Binder | mRNA display binding score
36 | B1 | inactive: 4.52
37 | B2 | inactive: -0.368
38 | B3 | inactive: 3.57
39 | B4 | inactive: 7.88
40 | B5 | inactive: 0.573
41 | B6 | inactive: -0.159
42 | B7 | inactive: 1.27

Same assay, conditions: antigen blocked with: nothing

Row | Binder | mRNA display binding score
43 | B1 | inactive: 3.89
44 | B2 | inactive: 0.324
45 | B3 | inactive: 14.4
46 | B4 | inactive: 12.1
47 | B5 | inactive: 1.62
48 | B6 | inactive: 4.55
49 | B7 | inactive: 1.92

Each binder was assayed against Influenza A H7N9 A/Shanghai/2/2013 hemagglutinin ectodomain in the same assay as above. Details: antigen blocked with: 2 µM CR9114 IgG.
Description: as §1

Row | Binder | mRNA display binding score
50 | B1 | inactive: 0.441
51 | B2 | inactive: -0.0474
52 | B3 | inactive: 0.272
53 | B4 | inactive: 0.957
54 | B5 | inactive: 0.382
55 | B6 | inactive: -1.11
56 | B7 | inactive: 0.615

Same assay, conditions: antigen blocked with: nothing

Row | Binder | mRNA display binding score
57 | B1 | inactive: 0.483
58 | B2 | inactive: 1.01
59 | B3 | inactive: 0.0994
60 | B4 | inactive: 0.0327
61 | B5 | inactive: 0.256
62 | B6 | inactive: 0.213
63 | B7 | inactive: -0.739

The binders below were run against Influenza B/Lee/1940 hemagglutinin ectodomain in the same assay as above. Details: antigen blocked with: 2 µM CR9114 IgG.
Description: as §1

Row | Binder | mRNA display binding score
64 | B1 | inactive: 9.4
65 | B2 | inactive: 0.191
66 | B3 | inactive: 1.9
67 | B4 | inactive: 10.7
68 | B5 | active: 69.4
69 | B6 | inactive: 1.21
70 | B7 | inactive: 2.05

Same assay, conditions: antigen blocked with: nothing

Row | Binder | mRNA display binding score
71 | B1 | active: 23.8
72 | B2 | inactive: 0.379
73 | B3 | active: 55.5
74 | B4 | active: 181
75 | B5 | active: 187
76 | B6 | active: 41.4
77 | B7 | active: 38.9

The binders below were run against Influenza B/Phuket/3073/2013 hemagglutinin ectodomain in the same assay as above. Details: antigen blocked with: 2 µM CR9114 IgG.
Description: as §1

Row | Binder | mRNA display binding score
78 | B1 | active: 35.4
79 | B2 | inactive: -0.022
80 | B3 | active: 19.5
81 | B4 | active: 128
82 | B5 | active: 37
83 | B6 | inactive: 2
84 | B7 | inactive: 5.36

Same assay, conditions: antigen blocked with: nothing

Row | Binder | mRNA display binding score
85 | B1 | active: 13.9
86 | B2 | inactive: 0.329
87 | B3 | active: 26.6
88 | B4 | active: 101
89 | B5 | active: 20.7
90 | B6 | active: 17.4
91 | B7 | active: 19.9
